SMILES strings stand for the structures. Hit rate of the full screen: of about 310,000 compounds, about 14,000 (4.5%) showed an effect of 50% or more. The effect is printed as a negative number. This is one part of the list.
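Further: peak tail current of the secondary pulse compared with the same well before compound.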

The target in this assay is human ether-à-go-go-related gene (hERG) potassium channel (human, UniProt Q12809). In words: primary screen, population patch clamp on CHO cells stably expressing hERG.
human ether-à-go-go-related gene (hERG) potassium channel, sequence (Q12809 whole entry, looked up): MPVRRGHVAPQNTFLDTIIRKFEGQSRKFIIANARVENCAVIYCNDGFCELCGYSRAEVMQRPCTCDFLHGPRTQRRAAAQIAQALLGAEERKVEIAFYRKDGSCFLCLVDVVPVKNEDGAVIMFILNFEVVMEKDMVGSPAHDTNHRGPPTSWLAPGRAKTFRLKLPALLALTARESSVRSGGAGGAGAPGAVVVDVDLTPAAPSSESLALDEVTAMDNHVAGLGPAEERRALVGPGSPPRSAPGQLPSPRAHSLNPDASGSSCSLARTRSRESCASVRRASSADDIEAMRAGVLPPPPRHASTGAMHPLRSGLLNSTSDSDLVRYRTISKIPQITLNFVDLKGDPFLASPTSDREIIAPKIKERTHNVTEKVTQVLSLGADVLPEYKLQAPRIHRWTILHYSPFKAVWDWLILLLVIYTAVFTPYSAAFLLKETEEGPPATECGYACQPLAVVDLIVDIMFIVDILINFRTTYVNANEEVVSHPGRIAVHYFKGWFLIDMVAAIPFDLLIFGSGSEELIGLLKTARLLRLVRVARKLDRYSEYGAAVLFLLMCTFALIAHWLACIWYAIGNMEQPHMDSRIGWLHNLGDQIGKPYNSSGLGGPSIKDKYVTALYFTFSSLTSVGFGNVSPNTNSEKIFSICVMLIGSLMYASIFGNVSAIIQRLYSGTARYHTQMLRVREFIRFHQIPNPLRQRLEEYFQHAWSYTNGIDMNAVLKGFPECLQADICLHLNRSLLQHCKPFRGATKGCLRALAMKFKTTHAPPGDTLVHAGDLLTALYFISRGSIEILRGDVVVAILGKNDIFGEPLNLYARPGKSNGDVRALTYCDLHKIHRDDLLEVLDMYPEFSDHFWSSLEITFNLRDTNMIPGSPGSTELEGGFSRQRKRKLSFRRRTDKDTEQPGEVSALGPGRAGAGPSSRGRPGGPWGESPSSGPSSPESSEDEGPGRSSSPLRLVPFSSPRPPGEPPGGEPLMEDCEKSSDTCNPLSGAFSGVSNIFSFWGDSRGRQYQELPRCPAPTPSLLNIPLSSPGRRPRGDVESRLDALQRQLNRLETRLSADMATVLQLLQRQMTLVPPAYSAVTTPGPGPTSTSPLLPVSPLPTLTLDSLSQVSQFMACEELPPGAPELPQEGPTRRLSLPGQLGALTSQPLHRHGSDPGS
On to `CCn1nnc2cc(C(=O)Nc3cc(S(C)(=O)=O)ccc3Cl)ccc21`, for which the “hERG current change (%, negative = inhibition) at 10uM” value is listed as -3.2%.
Consider `CN(CC(=O)Nc1ccccc1Cl)C(=O)COC(=O)/C=C/c1cccs1`, for which the “hERG current change (%, negative = inhibition) at 10uM” value is -13.5%.
As for `Cn1c(=O)c2c(nc(N/N=C/c3ccc(OC(=O)c4ccco4)cc3)n2Cc2ccc(F)cc2)n(C)c1=O`, the “hERG current change (%, negative = inhibition) at 10uM” value is -5.07%.
Consider `C=CCn1nc(-c2ccccc2)cc1C(=O)OCC`, for which the “hERG current change (%, negative = inhibition) at 10uM” value amounted to 6.85%.
Turning to `CC1CCc2sc(C(=O)N=Nc3c(O)[nH]c4ccccc34)cc2C1` (stereo not drawn), the “hERG current change (%, negative = inhibition) at 10uM” value turned out to be 13.7%.
On to `O=C(COc1ccc(Cl)cc1)Nc1ccc(C(=O)NCc2cccnc2)cc1`, for which the “hERG current change (%, negative = inhibition) at 10uM” value is on record as -36.8%.
The figure for `Cn1c(SCc2ccccc2F)nnc1-c1cnccn1` is 7.73%; for `Cc1[nH]c2ccccc2c1-c1csc(NC(=O)CSCCO)n1` it is -3.86%; for `O=C(Cc1cccs1)N/N=C\c1ccc(O)cc1` it is 14.5%.
As for `COc1ccc2[nH]c(=O)c(CN(C)C(=O)c3cccs3)cc2c1`, the “hERG current change (%, negative = inhibition) at 10uM” value is -22.9%.
The figure for `COc1ccc(-c2nnn(-c3ccc(Cl)cc3Cl)c2N)cc1` is -29.8%.
In the case of `COc1ccccc1OCc1nc(C#N)c(NCCCn2ccnc2)o1`, the “hERG current change (%, negative = inhibition) at 10uM” value stood at 6.7%.
For `CN1C[C@@H]2C(c3ccc(Cl)nc3)C3(c4ccc(C#N)cc4)CC2(C3)[C@H]1c1ccccc1` (stereo partly drawn), the “hERG current change (%, negative = inhibition) at 10uM” value is -54.9%.
As to `C[C@H](C(=O)NCc1ccccc1)C(=O)c1ccccc1`, the “hERG current change (%, negative = inhibition) at 10uM” value was 18%.
On to `CCc1nnc(NC(=O)c2sc3nc4cc(C)ccc4cc3c2N)s1`, for which the “hERG current change (%, negative = inhibition) at 10uM” value is reported as 13%.
In the case of `CCOc1cc(CNCCO)cc(Br)c1OCc1ccccc1.Cl`, the “hERG current change (%, negative = inhibition) at 10uM” value is -2.35%.
With `c1ccc(CNc2nc(-c3cccs3)nc3ccccc23)nc1`, the “hERG current change (%, negative = inhibition) at 10uM” value is on record as -28.6%.
Next, `CC(=O)Nc1ccc(NC2=Nc3ccccc3N3C2=Nc2c(c(C)nn2-c2ccccc2)C3c2ccccc2)cc1` (stereo not drawn): 1.09%; `COc1cc(NC(=O)CN2CCN(c3ccccc3)CC2)c(C)cc1[N+](=O)[O-]`: -7.07%; `Cc1cc(C)cc(NC2=NCC(=O)N2Cc2ccccc2)c1`: -5.49%.
On to `CCOC(=O)c1csc(COc2ccc(OC)cc2)n1`, for which the “hERG current change (%, negative = inhibition) at 10uM” value is listed as -34.5%.
For the molecule `O=C(Nc1ncc(Cc2ccc(Cl)cc2Cl)s1)c1ccc([N+](=O)[O-])cc1`, the “hERG current change (%, negative = inhibition) at 10uM” value is -14.4%.
The figure for `COCCCN1C(=O)C(=O)/C(=C(/O)c2ccc(OC(C)C)cc2)C1c1cccnc1` (stereo not drawn) is 24.3%; for `O=C(O)CCC(=O)CCC(=O)c1ccccc1` it is 11%.

The record behind these values is publication PMC4336329 (PLoS ONE, 2015).
